Lines with a small IC50 respond at low doses; a limit (>, <) means that the fit lies beyond the doses tested. For AUC the same curve is integrated over the 256-fold range of doses and scaled to a fraction; the more sensitive the line, the further below 1. Drugs with an entry number were screened twice under separate entries, and the two screens often disagree. Bounds are passed on as bounds.

Compound in the experiment: CS(=O)(=O)N1CCN(Cc2cc3nc(-c4cccc5[nH]ncc45)nc(N4CCOCC4)c3s2)CC1 [GDC0941]
The experiment can be described thus: Viability of human cancer cell lines after 72 h of drug (GDSC screen). The following applies: screen: GDSC drug entry 1058. The protocol:
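Human cancer cell lines in 384-well plates, medium with 10% serum, drug for 72 h over a 256-fold dose range (nine 2-fold or five 4-fold steps up to the top dose). Adherent lines were fixed and stained with the nucleic acid dye Syto60, suspension lines read with resazurin; signal relative to control wells, capped at 0 and 100%. One two-parameter sigmoid per drug and line, fitted in a mixed model over all curves with the slope shared within a line.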
What is called IC50 is the concentration that gives 50% inhibition. Take “DMS-273 (small cell lung carcinoma, adherent, top dose 4 µM)”: the AUC stood at 0.811 and the IC50 was found to be 2.27 µM. As to “DND-41 (T-cell leukaemia, suspension, top dose 4 µM)”, the AUC is 0.937 and the IC50 was greater than 4 µM. For “DOHH-2 (B-cell lymphoma, suspension, top dose 4 µM)”, the AUC came out at 0.89 and the IC50 is greater than 4 µM. “DOK (head and neck, adherent, top dose 4 µM)”: the AUC was 0.457 and the half-inhibitory concentration (IC50) turned out to be 0.18 µM. Turning to DOV13 (ovary, adherent, top dose 4 µM), the AUC came to 0.708 and the half-inhibitory concentration (IC50) amounted to 1.07 µM. On the same counts, the results for DSH1 (bladder, adherent, top dose 4 µM) are 0.903 and greater than 4 µM. Taken in the same sequence, the figures for “DU-145 (prostate, adherent, top dose 2 µM)” were 0.983 and greater than 2 µM. “Daudi (Burkitt lymphoma, suspension, top dose 4 µM)”: the AUC was 0.877 and the IC50 turned out to be 3.15 µM. On the same counts, the results for “Detroit562 (head and neck, adherent, top dose 4 µM)” are 0.931 and greater than 4 µM. Regarding “DoTc2-4510 (cervix, adherent, top dose 4 µM)”, the AUC was found to be 0.89 and the IC50 is greater than 4 µM. As for “EB2 (Burkitt lymphoma, suspension, top dose 4 µM)”, the AUC was determined as 0.978 and the IC50 was greater than 4 µM. Taken in the same sequence, the figures for “EB-3 (Burkitt lymphoma, suspension, top dose 4 µM)” were 0.984 and greater than 4 µM. On the same counts, the results for “EBC-1 (lung squamous cell carcinoma, adherent, top dose 4 µM)” are 0.915 and greater than 4 µM.

For “EC-GI-10 (oesophagus, adherent, top dose 4 µM)”, the AUC amounted to 0.661 and the concentration for half-maximal inhibition (IC50) is 0.699 µM. Regarding “ECC10 (stomach, suspension, top dose 4 µM)”, the AUC was determined as 0.629 and the half-inhibitory concentration (IC50) was found to be 0.576 µM.

With “EFM-192A (breast, adherent, top dose 4 µM)”, the AUC was found to be 0.667 and the IC50 worked out at 0.772 µM. On the same counts, the results for EFO-21 (ovary, adherent, top dose 4 µM) are 0.904 and greater than 4 µM. As for EFO-27 (ovary, adherent, top dose 4 µM), the AUC turned out to be 0.913 and the IC50 was greater than 4 µM. For “EGI-1 (biliary tract, adherent, top dose 2 µM)”, the AUC is 0.742 and the IC50 stood at 0.776 µM. Turning to “EHEB (lymphoid neoplasm, suspension, top dose 4 µM)”, the AUC worked out at 0.692 and the IC50 was 1.11 µM. As for “EKVX (lung adenocarcinoma, adherent, top dose 4 µM)”, the AUC came out at 0.644 and the IC50 came out at 0.994 µM. Taken in the same sequence, the figures for “EM-2 (chronic myeloid leukaemia, suspension, top dose 4 µM)” were 0.737 and 1.32 µM. With “EMC-BAC-1 (lung adenocarcinoma, adherent, top dose 4 µM)”, the AUC came out at 0.737 and the concentration for half-maximal inhibition (IC50) worked out at 1.33 µM. On the same counts, the results for “EMC-BAC-2 (lung adenocarcinoma, adherent, top dose 4 µM)” are 0.695 and 0.987 µM. “EN (endometrium, adherent, top dose 4 µM)”: the AUC was determined as 0.869 and the IC50 was greater than 4 µM. For the cell line “ES1 (Ewing sarcoma, adherent, top dose 4 µM)”, the AUC was 0.725 and the IC50 worked out at 1.08 µM. On to “ES3 (Ewing sarcoma, adherent, top dose 2 µM)”, for which the AUC was determined as 0.953 and the half-maximal inhibitory concentration (IC50) was greater than 2 µM. On the same counts, the results for “ES4 (Ewing sarcoma, adherent, top dose 4 µM)” are 0.64 and 0.647 µM.

With “ES5 (Ewing sarcoma, adherent, top dose 4 µM)”, the AUC turned out to be 0.299 and the IC50 was found to be 0.062 µM. On the same counts, the results for “ES6 (Ewing sarcoma, adherent, top dose 4 µM)” are 0.875 and greater than 4 µM. As for “ES7 (Ewing sarcoma, adherent, top dose 4 µM)”, the AUC stood at 0.539 and the IC50 is 0.321 µM.

Take “ES8 (Ewing sarcoma, adherent, top dose 4 µM)”: the AUC came out at 0.599 and the 50% inhibitory concentration (IC50) was determined as 0.458 µM.

With ES-2 (ovary, adherent, top dose 4 µM), the AUC was 0.933 and the IC50 was greater than 4 µM.

As for “ESO26 (oesophagus, adherent, top dose 4 µM)”, the AUC worked out at 0.712 and the IC50 was found to be 0.951 µM. Taken in the same sequence, the figures for “ESO51 (oesophagus, semi-adherent, top dose 4 µM)” were 0.645 and 0.744 µM. Turning to “ESS-1 (endometrium, adherent, top dose 4 µM)”, the AUC came to 0.879 and the IC50 was determined as 3.4 µM. Taken in the same sequence, the figures for “ETK-1 (biliary tract, adherent, top dose 4 µM)” were 0.79 and 2.05 µM. As to “EVSA-T (breast, adherent, top dose 4 µM)”, the AUC was 0.528 and the IC50 stood at 0.295 µM.

For the cell line “EW-1 (Ewing sarcoma, semi-adherent, top dose 4 µM)”, the AUC came to 0.889 and the 50% inhibitory concentration (IC50) is 3.91 µM. In the case of “EW-3 (Ewing sarcoma, adherent, top dose 4 µM)”, the AUC is 0.711 and the IC50 was found to be 1.09 µM. Consider “EW-7 (Ewing sarcoma, semi-adherent, top dose 4 µM)”, for which the AUC was 0.719 and the IC50 amounted to 0.952 µM. On the same counts, the results for “EW-11 (Ewing sarcoma, adherent, top dose 4 µM)” are 0.891 and greater than 4 µM. On the same counts, the results for “EW-13 (Ewing sarcoma, suspension, top dose 4 µM)” are 0.737 and 1.29 µM. Taken in the same sequence, the figures for “EW-16 (Ewing sarcoma, adherent, top dose 4 µM)” were 0.724 and 1.12 µM. Take “EW-18 (Ewing sarcoma, suspension, top dose 4 µM)”: the AUC is 0.435 and the IC50 was determined as 0.163 µM. Take “EW-22 (Ewing sarcoma, adherent, top dose 4 µM)”: the AUC was 0.769 and the 50% inhibitory concentration (IC50) was 1.45 µM. For the cell line “EW-24 (Ewing sarcoma, semi-adherent, top dose 4 µM)”, the AUC stood at 0.943 and the half-maximal inhibitory concentration (IC50) was greater than 4 µM. In the case of “EoL-1-cell (haematopoietic neoplasm, suspension, top dose 4 µM)”, the AUC was found to be 0.684 and the IC50 came out at 0.762 µM. Taken in the same sequence, the figures for “FADU (head and neck, adherent, top dose 4 µM)” were 0.746 and 1.23 µM. For the cell line “FLO-1 (oesophagus, adherent, top dose 4 µM)”, the AUC came out at 0.574 and the IC50 came out at 0.435 µM. For the cell line “FTC-133 (thyroid, adherent, top dose 4 µM)”, the AUC was 0.92 and the IC50 was greater than 4 µM. Taken in the same sequence, the figures for FU97 (stomach, adherent, top dose 4 µM) were 0.606 and 0.493 µM.

As for “FU-OV-1 (ovary, adherent, top dose 4 µM)”, the AUC worked out at 0.833 and the concentration for half-maximal inhibition (IC50) was found to be 3.83 µM. Taken in the same sequence, the figures for “Farage (B-cell lymphoma, suspension, top dose 4 µM)” were 0.34 and 0.0983 µM. As to “G-361 (melanoma, adherent, top dose 4 µM)”, the AUC was 0.857 and the half-maximal inhibitory concentration (IC50) was found to be 3.04 µM. With G-401 (kidney, adherent, top dose 4 µM), the AUC is 0.772 and the half-inhibitory concentration (IC50) is 1.7 µM.

With “G-402 (soft tissue, adherent, top dose 4 µM)”, the AUC was 0.55 and the concentration for half-maximal inhibition (IC50) was found to be 0.359 µM. As for “GA-10 (Burkitt lymphoma, suspension, top dose 4 µM)”, the AUC is 0.465 and the IC50 came to 0.204 µM. Taken in the same sequence, the figures for GAMG (glioma, adherent, top dose 4 µM) were 0.577 and 0.411 µM. Take GB-1 (glioma, adherent, top dose 4 µM): the AUC came out at 0.899 and the half-inhibitory concentration (IC50) is greater than 4 µM. GCIY (stomach, adherent, top dose 4 µM): the AUC was found to be 0.583. Take “GDM-1 (acute myeloid leukaemia, suspension, top dose 4 µM)”: the AUC amounted to 0.803 and the IC50 turned out to be 1.88 µM. For GI-1 (glioma, adherent, top dose 4 µM), the AUC was 0.927 and the IC50 was greater than 4 µM. Take “GI-ME-N (neuroblastoma, adherent, top dose 4 µM)”: the AUC turned out to be 0.864 and the concentration for half-maximal inhibition (IC50) was greater than 4 µM. Take “GMS-10 (glioma, adherent, top dose 4 µM)”: the AUC stood at 0.979 and the half-maximal inhibitory concentration (IC50) is greater than 4 µM.

Consider “GOTO (neuroblastoma, adherent, top dose 4 µM)”, for which the AUC came out at 0.951 and the IC50 was greater than 4 µM. On the same counts, the results for “GR-ST (lymphoblastic leukaemia, suspension, top dose 4 µM)” are 0.853 and greater than 4 µM. On to “GRANTA-519 (B-cell lymphoma, suspension, top dose 4 µM)”, for which the AUC turned out to be 0.708 and the IC50 was determined as 0.901 µM.

The values are drawn from the supplement of paper PMC4967469.
